Results on one molecule are retold here after US20160168253A1.

The experiment deals with T1, peptide substrate MCA-…(Dnp)-OH (R&D Systems Cat. No. ES005).
T1 chain: RPPGFSAFK
Nature of the experiment: cell-based or functional assay.

B1: trifunctional polypeptide TriGant (bispecific antibody)
heavy 1: QVELVESGGGLVQPGGSLRLSCAASGFTFSSYAMSWVRQAPGKGLEWVSAINASGTRTYYADSVKGRFTISRDNSKNTLYLQMNSLRAEDTAVYYCARGKGNTHKPYGYVRYFDVWGQGTLVTVSSASTKGPSVFPLAPSSKSTSGGTAALGCLVKDYFPEPVTVSWNSGALTSGVHTFPAVLQSSGLYSLSSVVTVPSSSLGTQTYICNVNHKPSNTKVDKKV[human IgG1 Fc with changes cut from this listing]GGSGGGGSGGGGSGGGGSDIQMTQSPASLSASLEEIVTITCQASQDIGNWLAWYQQKPGKSPQLLIYGATSLADGVPSRFSGSRSGTQFSLKISRVQVEDIGIYYCLQAYNTPWTFGGGTKVEIKRTVAAPSVFIFPPSDEQLKSGTASVVCLLNNFYPREAKVQWKVDNALQSGNSQESVTEQDSKDSTYSLSSTLTLSKADYEKHKVYACEVTHQGLSSPVTKSFNRGECGGGGSGGGGSGGGGSGGGGSGGGGSGGGGSGGEVQLVESGGGLVQPGNSLTLSCVASGFTFSNYGMHWIRQAPKKGLEWIAMIYYDSSKMNYADTVKGRFTISRDNSKNTLYLEMNSLRSEDTAMYYCAVPTSHYVVDVWGQGVSVTVSSASTKGPSVFPLAPSSKSTSGGTAALGCLVKDYFPEPVTVSWNSGALTSGVHTFPAVLQSSGLYSLSSVVTVPSSSLGTQTYICNVNHKPSNTKVDKKVEPKSC
heavy 2: QVELVESGGGLVQPGGSLRLSCAASGFTFSSYAMSWVRQAPGKGLEWVSAINASGTRTYYADSVKGRFTISRDNSKNTLYLQMNSLRAEDTAVYYCARGKGNTHKPYGYVRYFDVWGQGTLVTVSSASTKGPSVFPLAPSSKSTSGGTAALGCLVKDYFPEPVTVSWNSGALTSGVHTFPAVLQSSGLYSLSSVVTVPSSSLGTQTYICNVNHKPSNTKVDKKV[human IgG1 Fc with changes cut from this listing]GGSGGGGSGGGGSYDDGICKSSDCIKSAARLIQNMDATTEPCTDFFKYACGGWLKRNVIPETSSRYGNFDILRDELEVVLKDVLQEPKTEDIVAVQKAKALYRSCINESAIDSRGGEPLLKLLPDIYGWPVATENWEQKYGASWTAEKAIAQLNSKYGKKVLINLFVGTDDKNSVNHVIHIDQPRLGLPSRDYYECTGIYKEACTAYVDFMISVARLIRQEERLPIDENQLALEMNKVMELEKEIANATAKPEDRNDPMLLYNKMTLAQIQNNFSLEINGKPFSWLNFTNEIMSTVNISITNEEDVVVYAPEYLTKLKPILTKYSARDLQNLMSWRFIMDLVSSLSRTYKESRNAFRKALYGTTSETATWRRCANYVNGNMENAVGRLYVEAAFAGESKHVVEDLIAQIREVFIQTLDDLTWMDAETKKRAEEKALAIKERIGYPDDIVSNDNKLNNEYLELNYKEDEYFENIIQNLKFSQSKQLKKLREKVDKDEWISGAAVVNAFYSSGRNQIVFPAGILQPPFFSAQQSNSLNYGGIGMVIGHEITHGFDDNGRNFNKDGDLVDWWTQQSASNFKEQSQCMVYQYGNFSWDLAGGQHLNGINTLGENIADNGGLGQAYRAYQNYIKKNGEEKLLPGLDLNHKQLFFLNFAQVWCGTYRPEYAVNSIKTDVHSPGNFRIIGTLQNSAEFSEAFHCRKNSYMNPEKKCRVW
light: DIVLTQSPATLSLSPGERATLSCRASQSVSSSYLAWYQQKPGQAPRLLIYGASSRATGVPARFSGSGSGTDFTLTISSLEPEDFATYYCLQIYNMPITFGQGTKVEIKRTVAAPSVFIFPPSDEQLKSGTASVVCLLNNFYPREAKVQWKVDNALQSGNSQESVTEQDSKDSTYSLSSTLTLSKADYEKHKVYACEVTHQGLSSPVTKSFNRGEC
modifications: here or on the partner: N-terminal MCA; Dnp on the C-terminal Lys (K9)
Consider B1, for which the Km [µM] (apparent Km, hydrolysis of fluorogenic peptide substrate) is 3.8 µM.
